According to PubChem BioAssay AID504332 (National Center for Advancing Translational Sciences (NCATS), 2011):
Values joined by “and” are separate entries in the source; they are usually repeats but may differ in a detail not shown here. Equal entries are not always repeated. Screen size: about 350,000 compounds; about 31,000 (8.9%) were called active. Inconclusive means that the source gave no clear call. Such entries were picked first, then a sample of the others. Calls follow the shape of the dose curve; as a rule, active = well fitted inhibition curve with a large enough effect; inconclusive = small, poorly fitted or top-dose-only effect; inactive = no such curve, though single readings can be large or run the other way. Potencies beside an inconclusive call are fits to weak or partial responses and may not hold up.

biological target: Histone-lysine N-methyltransferase EHMT2 (Homo sapiens) (UniProt Q96KQ7); assay: qHTS Assay for Inhibitors of Histone Lysine Methyltransferase G9a; conditions: G9a H3K9 monomethylation, AlphaScreen, 2 h; activity, negative = inhibition: at 59 µM (top of the series) unless noted; also: nearly all actives have a fitted effect of over 75% in size
Method in brief: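 AlphaScreen detection with an anti-monomethyl H3K9 antibody quantified product after a 2 h room-temperature reaction containing 500 nM biotinylated H3K9 peptide, 20 µM SAM and 20 nM enzyme, which had been preincubated 15 min with compound.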
% is scaled to controls: 0 for no effect and ±100 for the full control effect; potency is read from the fitted curve at half-maximal effect; tags tell the direction and shape of the fitted curve.

Chain of UniProt Q96KQ7 (Q96KQ7 whole entry, looked up): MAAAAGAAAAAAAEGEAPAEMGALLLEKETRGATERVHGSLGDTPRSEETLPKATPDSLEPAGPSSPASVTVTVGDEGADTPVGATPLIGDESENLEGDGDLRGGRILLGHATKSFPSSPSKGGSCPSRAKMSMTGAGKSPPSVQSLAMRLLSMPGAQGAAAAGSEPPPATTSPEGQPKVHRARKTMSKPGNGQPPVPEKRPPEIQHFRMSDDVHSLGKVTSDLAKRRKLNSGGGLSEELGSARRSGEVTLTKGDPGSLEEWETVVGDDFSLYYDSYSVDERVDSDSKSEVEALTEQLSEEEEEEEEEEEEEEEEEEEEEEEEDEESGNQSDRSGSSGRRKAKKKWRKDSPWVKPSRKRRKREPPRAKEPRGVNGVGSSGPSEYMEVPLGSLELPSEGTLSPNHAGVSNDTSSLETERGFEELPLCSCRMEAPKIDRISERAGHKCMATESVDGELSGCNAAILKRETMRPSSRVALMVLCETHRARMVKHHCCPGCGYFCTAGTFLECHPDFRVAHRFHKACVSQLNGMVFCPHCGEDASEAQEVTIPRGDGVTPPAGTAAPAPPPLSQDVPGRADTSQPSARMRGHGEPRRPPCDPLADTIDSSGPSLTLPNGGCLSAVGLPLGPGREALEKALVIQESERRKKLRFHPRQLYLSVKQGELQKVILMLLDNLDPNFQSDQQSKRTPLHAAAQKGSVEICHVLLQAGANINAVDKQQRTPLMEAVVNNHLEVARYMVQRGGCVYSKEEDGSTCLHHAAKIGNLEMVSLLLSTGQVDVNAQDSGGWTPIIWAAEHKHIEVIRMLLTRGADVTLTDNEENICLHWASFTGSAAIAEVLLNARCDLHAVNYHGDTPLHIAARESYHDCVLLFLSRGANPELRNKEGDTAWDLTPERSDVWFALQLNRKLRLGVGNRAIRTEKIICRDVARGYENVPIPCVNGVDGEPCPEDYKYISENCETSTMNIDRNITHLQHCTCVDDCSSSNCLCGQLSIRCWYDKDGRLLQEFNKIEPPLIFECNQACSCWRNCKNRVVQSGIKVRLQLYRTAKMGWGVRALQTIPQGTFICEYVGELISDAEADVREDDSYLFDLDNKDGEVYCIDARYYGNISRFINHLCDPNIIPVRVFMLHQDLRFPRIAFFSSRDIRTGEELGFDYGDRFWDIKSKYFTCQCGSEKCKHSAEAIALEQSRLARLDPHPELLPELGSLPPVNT

SMILES | activity, negative = inhibition | Potency
COc1cc(/C=C2/C(=O)ON=C2C)ccc1OCc1ccccc1F | inconclusive: -89.9% [inhibitor] | –
COc1cc2nc(SCC(=O)Nc3c(C)cc(C)cc3C)n3nc(CCn4c(C)nc5ccccc54)nc3c2cc1OC | inactive: 0.185% | –
COCCNC(=O)NC(=O)COC(=O)c1cc([N+](=O)[O-])ccc1Sc1nc(C)cs1 | – | inconclusive: 89.1 µM [inhibitor, partial curve, poor fit]
Cc1ccc(C(c2sc3nc(C)nn3c2O)N2CCN(c3ccccc3)CC2)cc1 (stereo not drawn) | inactive: 15.6% [at 12.7 µM] | –
CCOc1ccc(NCc2nc3ccccc3n2CCOc2ccccc2)cc1 | – | active: 31.6 µM
Cc1cccc(OCCCCc2c(C)n[nH]c2C)c1 | – | inconclusive: 89.1 µM [inhibitor, single point]
COc1ccccc1C(=O)NCC(=O)NCCSc1ccc(Br)cc1 | inactive: 2.21% | –
Cc1nn(Cc2c(Cl)cccc2Cl)c(C)c1NC(=O)CCCn1nc([N+](=O)[O-])c(Cl)c1C | inactive: 12% [at 102 µM] | –
COc1cc(CC(=O)OCC(=O)Nc2ccc(N3CCOCC3)cc2)cc(OC)c1OC | – | inconclusive: 0.355 µM [inhibitor, full curve]
COc1cccc(-c2ccc3c(N)c(C(=O)NC4CC4)sc3n2)c1 | – | inconclusive: 89.1 µM [inhibitor, single point]
COC(=O)[C@H](Cc1ccccc1)NC(=O)O[C@@H]1C(=O)c2cc(OC)ccc2O[C@H]1c1ccc(OC)c(Br)c1 | – | inconclusive: 89.1 µM [inhibitor, single point]
O=C(Nc1ccc(F)cc1)c1ccccc1Oc1ccc(C(F)(F)F)cc1[N+](=O)[O-] | – | inconclusive: 8.91 µM [inhibitor, partial curve, poor fit]
Cc1ccnc(NC(=O)CCCc2ccccc2)c1 | – | inconclusive: 0.158 µM [inhibitor, full curve, poor fit]
O=[N+]([O-])c1cc(CN(CCO)CCO)ccc1O | – | inconclusive: 89.1 µM [inhibitor, single point]
CCn1c2ccccc2c2nnc(SCc3ccc(C(=O)OC)o3)nc21 | – | inconclusive: 8.91 µM [inhibitor, single point]
Cc1nn2c(=O)cc(CSc3nc4ccccc4[nH]3)nc2s1 | – | inconclusive: 35.5 µM [inhibitor, partial curve, poor fit]
CC(=O)Nc1ccc(-c2nc3cc(Cl)ccc3o2)cc1 | – | inconclusive: 56.2 µM [inhibitor, partial curve, poor fit]
Cc1ccc(NC(=O)CSc2nnc(NC(=O)c3ccco3)s2)cc1 | – | inconclusive: 79.4 µM [inhibitor, partial curve, poor fit]
CCCn1nnnc1NCc1cccc(OC)c1OC | – | inconclusive: 89.1 µM [inhibitor, single point]
CCOc1cc(/C=N/Nc2cc(C)nc(-n3nc(C)cc3C)n2)ccc1O | – | active: 44.7 µM
CN(C)CCCN1C(=O)C(O)=C(C(=O)c2cc3ccccc3o2)C1c1ccccc1 (stereo not drawn) | – | active: 14.1 µM
COc1cccc(C(=O)NCC2CCN(c3ccc(S(=O)(=O)N4CCOCC4)cc3)CC2)c1 | inactive: 10.1% [at 102 µM] | –

SMILES | activity, negative = inhibition | Potency
COc1ccccc1CNC(=O)CCn1c(=O)c2ccccc2n(CC(=O)Nc2ccc(C)cc2Cl)c1=O | inactive: -1.63% | –
CCOC(=O)c1c(S(=O)(=O)NCC(=O)N2CCN(c3ccccc3)CC2)c(C)n(C)c1C | – | inactive
O=C(CN(c1cc(Cl)ccc1Cl)S(=O)(=O)c1ccccc1)N1CCOCC1 | inactive: 47.5% [at 102 µM] | –
O=C(COC(=O)CCNS(=O)(=O)c1ccccc1)NC(=O)c1ccccc1 | inactive: -9.81% [at 2.33 µM] | –
O=C(C1=C[C@@H]2[C@H]3C(=O)N(c4cccc(Cl)c4)C(=O)[C@H]3[C@@H](C(=O)c3ccc(Cl)cc3)N2C=C1)c1ccccc1 | – | active: 3.16 µM
CC(C)[C@H](NC(=O)[C@@H]1CSC2c3ccccc3C(=O)N21)C(=O)N1CCCCC1 (stereo partly drawn) | inactive: 43.6% [at 102 µM] | –
CCn1c2ccccc2c2cc(NC(=O)N3CCOCC3)ccc21 | – | inconclusive: 0.631 µM [inhibitor, partial curve, poor fit]
COc1cccc(NC(=S)N(Cc2ccc(C(=O)O)cc2)Cc2ccc(OC)c(OC)c2)c1 | – | inconclusive: 50.1 µM [inhibitor, single point]
Cc1ccc(C(=O)N[C@H](C(=O)Nc2ccc(N3CCOCC3)cc2)C(C)C)cc1 | – | inconclusive: 89.1 µM [inhibitor, partial curve, poor fit]
Cn1c(=O)c(=O)n(C)c2cc(NC(=O)c3cccc(F)c3)c(Cl)cc21 | inactive: -1.86% | –
CCCSCCCNC(=O)C1CCCN(c2nn3cc(-c4ccc(OC)cc4)nc3s2)C1 (stereo not drawn) | – | inconclusive: 31.6 µM [inhibitor, partial curve, poor fit]
Cc1ccc(-c2nc3cnccn3c2Nc2c(C)cccc2C)o1 | – | active: 44.7 µM
O=C(O)CCCCCNS(=O)(=O)c1c(Cl)cccc1Cl | inactive: -29.1% [at 12.7 µM] | –
ClCC1=Nc2cccc3cccc(c23)N1 | inconclusive: -80.2% [inhibitor] | –
COc1ccccc1Oc1ccc(N/C=C/C(=O)c2ccc(C)o2)cc1 | – | inconclusive: 89.1 µM [inhibitor, partial curve, poor fit]
Cc1c(Cc2ccccc2)sc(NC(=O)/C=C/c2cccc3ccccc23)c1C(N)=O | – | active: 20 µM
COc1ccc(CN2CC34C=CC(O3)C(C(=O)O)C4C2=O)cc1 (stereo not drawn) | – | inconclusive: 89.1 µM [inhibitor, single point]
N#CC(C#N)=C(N)/C(C#N)=C/c1cc(O)c(O)c(O)c1 | – | active: 5.01 µM and active: 5.62 µM
COC(=O)C1=C(C)Nc2nc(-c3ccccc3)nn2C1c1ccc(C)o1 (stereo not drawn) | – | inconclusive: 89.1 µM [inhibitor, single point]
COC(=O)C1=C(C)N(C)C(=O)NC1c1cc2c(cc1[N+](=O)[O-])OCO2 (stereo not drawn) | – | inconclusive: 39.8 µM [inhibitor, single point]
COc1ccccc1N1CCN(Cc2cccc(OC)c2OC)CC1 | – | inconclusive: 7.08 µM [inhibitor, single point]
